Experimental data taken from paper PMC12255758.
Results are given in words; binding and its absence hold for the method and conditions named. In cells and extracts the contact can be indirect. Some results given as binding are weak or reduced against the parent protein; the word gives no strength. For part of these data: Where a sequence is shown, tags or fusion partners need not be part of it. Blank lines part the entries; values can stand above or below the molecule they belong to.

Chains of the proteins cited; added tags and fusions are not shown.
UniProt Q9UNE7: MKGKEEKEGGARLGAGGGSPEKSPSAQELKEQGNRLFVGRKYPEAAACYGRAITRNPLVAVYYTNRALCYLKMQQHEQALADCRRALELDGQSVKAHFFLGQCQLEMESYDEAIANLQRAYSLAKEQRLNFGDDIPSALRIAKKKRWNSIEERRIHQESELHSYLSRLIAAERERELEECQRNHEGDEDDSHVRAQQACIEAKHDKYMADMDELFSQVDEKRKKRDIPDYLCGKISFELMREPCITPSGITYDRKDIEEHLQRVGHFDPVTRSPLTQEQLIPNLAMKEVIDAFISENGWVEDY
UniProt P17174: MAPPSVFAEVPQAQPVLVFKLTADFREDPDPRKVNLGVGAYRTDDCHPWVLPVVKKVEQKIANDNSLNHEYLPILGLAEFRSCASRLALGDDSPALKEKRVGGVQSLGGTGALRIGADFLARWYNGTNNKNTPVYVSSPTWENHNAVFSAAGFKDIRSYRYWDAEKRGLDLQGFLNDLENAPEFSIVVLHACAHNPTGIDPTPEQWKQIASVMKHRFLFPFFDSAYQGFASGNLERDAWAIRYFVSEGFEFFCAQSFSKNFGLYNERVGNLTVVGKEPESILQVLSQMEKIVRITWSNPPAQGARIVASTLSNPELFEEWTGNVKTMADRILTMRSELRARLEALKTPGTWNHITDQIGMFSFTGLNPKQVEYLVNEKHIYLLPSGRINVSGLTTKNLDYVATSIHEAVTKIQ

Experiments:
HA-tagged GOT2 = molecular target: T1, HA-tagged GOT2 (UniProt P00505); assay: co-IP; HEK293T co-transfected with HA-GOT2 and Flag-tagged STUB1 (full length or deletion mutants); lysates immunoprecipitated by the tags (anti-Flag magnetic beads for the deletion mutants, 24 h), blotted for HA and Flag
T1 sequence: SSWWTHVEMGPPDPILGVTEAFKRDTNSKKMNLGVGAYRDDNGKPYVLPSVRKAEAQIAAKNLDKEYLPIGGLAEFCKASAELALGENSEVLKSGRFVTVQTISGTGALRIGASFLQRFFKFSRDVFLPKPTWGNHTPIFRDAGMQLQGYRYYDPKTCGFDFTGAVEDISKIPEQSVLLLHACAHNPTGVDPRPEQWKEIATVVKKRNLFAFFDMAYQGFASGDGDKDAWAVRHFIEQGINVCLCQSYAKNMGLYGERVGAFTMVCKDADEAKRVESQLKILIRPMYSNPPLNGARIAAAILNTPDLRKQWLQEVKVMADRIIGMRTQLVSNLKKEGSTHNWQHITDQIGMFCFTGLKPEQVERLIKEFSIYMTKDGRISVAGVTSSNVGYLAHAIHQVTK

Myc-STUB1 = Myc-STUB1 (UniProt Q9UNE7); assay: co-IP; HEK293T with Myc-STUB1 plasmids together with or without Flag-GOT2 or Flag-GOT1 plasmids, 48 h; lysates immunoprecipitated with anti-Myc magnetic beads; GOT2 knockdown also tested
[1] = molecular target: Purified recombinant STUB1 protein (UniProt Q9UNE7); assay: pull-down; purified recombinant STUB1 from bacteria incubated with extracts of HA-GOT2-transfected HEK293T cells, blotted with HA-tag antibody; cell-free conditions; only the target purified
[2] = molecular target: Flag-tagged full-length STUB1 (UniProt Q9UNE7); assay: co-IP; HEK293T co-transfected with HA-GOT2 and Flag-tagged STUB1 (full length or deletion mutants); lysates immunoprecipitated by the tags (anti-Flag magnetic beads for the deletion mutants, 24 h), blotted for HA and Flag
[3] = molecular target: endogenous STUB1 (human (endogenous in T24 and UC3)) (UniProt Q9UNE7); assay: co-IP; UC3 or T24 cell lysates immunoprecipitated with control IgG, anti-STUB1 or anti-GOT2 antibody; blotted with the indicated antibodies

B1: HA-tagged GOT2 (enzyme, UniProt P00505 30-430)
chain: T1 sequence
- binding [1]: binds
- binding [2]: binds

B2: endogenous GOT2 (enzyme, UniProt P00505 30-430)
chain: T1 sequence
- binding [3]: binds

Continued, values first:

- binding (HA-tagged GOT2): binds
Molecule: Flag-tagged full-length STUB1 (from UniProt Q9UNE7 1-303) (enzyme)

- binding (Myc-STUB1): no binding
Molecule: Flag-GOT1 (from UniProt P17174 1-413) (enzyme)

- binding (Myc-STUB1): binds
B3: Flag-GOT2 (enzyme, UniProt P00505 30-430)
chain: T1 sequence
